36 sequences from the supplement of paper PMC7726561 can be followed below.

Whole data set: some 1,400 sequences, median “thermal melting temperature (Tm) of peptide-HLA complex” near 60, cut for the lowest 2% near 45. The list shows a part of the results.
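Also: cell lysates heated 10 min at 37–73 °C, remaining pHLA pulled down with pan-class I antibody, peptides quantified by DIA-MS versus 37 °C, Tm where half the complex is lost.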

The target in this assay is HLA-B*07:02. In words: thermal melting temperature (Tm) of peptide-HLA complex; higher = more thermostable pHLA complex. The conditions noted are these: C1R-B*07:02.
In the case of QPAPAPLLF, the thermal melting temperature stood at 59.9 °C.

As for GPLPRAAAL, the thermal melting temperature turned out to be 59.1 °C.

Turning to APSAARELSL, the thermal melting temperature is 62.9 °C.

The sequence FPRAPSTSDSV had a thermal melting temperature of 57.1 °C.

APYSRPKQL returned a thermal melting temperature of 61.5 °C.

APSEYRYTLL returned a thermal melting temperature of 64.3 °C.

Sequence KPQPHSGSVL had a thermal melting temperature of 56 °C.

In turn, GPGLSRTGVEL had a thermal melting temperature of 55.7 °C.

In turn, YLRPPNTSL returned a thermal melting temperature of 60.1 °C.

For QPFFQKRSEL, the thermal melting temperature amounted to 60 °C.

In turn, QPSSFRSVIGL registered a thermal melting temperature of 61.8 °C.

Regarding GPRAPSPTKPL, the thermal melting temperature worked out at 57.7 °C.

Turning to NPRLNILDTL, the thermal melting temperature amounted to 51.2 °C.

The sequence APSGSLAVPL had a thermal melting temperature of 63.5 °C.

On to LPTSPGPAL, for which the thermal melting temperature turned out to be 40.6 °C.

For QPNPLPLRL, the thermal melting temperature came to 61.2 °C.

For the sequence NPDAALRAL, the thermal melting temperature was found to be 54.5 °C.

Consider LPRGMQPTEF, for which the thermal melting temperature stood at 60.8 °C.

For LPRKPSVPW, the thermal melting temperature was 59.5 °C.

FPAFPRAQV displayed a thermal melting temperature of 62.3 °C.

Consider LPQPPRDVL, for which the thermal melting temperature was determined as 58.6 °C.

On to KPFDQTTISL, for which the thermal melting temperature was determined as 61.3 °C.

As to HPNVLPVL, the thermal melting temperature is 58.8 °C.

SPVKSTTSI registered a thermal melting temperature of 59.1 °C.

APFDREPFTL: the thermal melting temperature came out at 57.5 °C.

AALPFVRQAGL came in with a thermal melting temperature of 42.3 °C.

RPAYLVTL gave a thermal melting temperature of 60.1 °C.

Regarding QPQQPGFFL, the thermal melting temperature worked out at 61.1 °C.

In turn, KPINSVLQL showed a thermal melting temperature of 61 °C.

TPSLVKSTSQL had a thermal melting temperature of 61.8 °C.

QPRSPGPDYSL had a thermal melting temperature of 57.7 °C.

For GPREAFRQL, the thermal melting temperature came out at 61.5 °C.

Regarding SPMMPRITSVF, the thermal melting temperature worked out at 60.1 °C.

Take LARPVGTSL: the thermal melting temperature is 60.8 °C.

Regarding SPRVQFQSL, the thermal melting temperature turned out to be 61.7 °C.

VPNWHRDL had a thermal melting temperature of 55.2 °C.
